Data: publication PMC12820563, “FoxP3 forms a head-to-head dimer in vivo and stabilizes its multimerization on adjacent microsatellites”
This is one part of the list.

biological target: T1, MBP-FoxP1dN (Mus musculus, UniProt P58462 326-579); test: PD-seq (MBP pull-down with sequencing); 20 mM Tris-HCl pH 7.5, 100 mM NaCl, 1.5 mM MgCl2, 0.4 uM protein, 0.1 uM dsDNA library, 30 min, room temperature, amylose pull-down; high values mean tight binding; details: protein: recombinant; tags: His6-MBP; chain copies: 2; dsDNA, one strand shown
T1 sequence: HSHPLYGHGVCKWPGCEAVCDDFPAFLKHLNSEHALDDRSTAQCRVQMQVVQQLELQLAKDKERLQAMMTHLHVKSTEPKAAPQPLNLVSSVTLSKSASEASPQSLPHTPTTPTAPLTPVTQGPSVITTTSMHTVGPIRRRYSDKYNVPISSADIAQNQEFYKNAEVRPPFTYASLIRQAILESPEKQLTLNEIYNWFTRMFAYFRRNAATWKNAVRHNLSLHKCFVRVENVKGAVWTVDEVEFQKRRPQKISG
In short: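 A degenerate double-stranded DNA library, filled in with Klenow, was added at 0.1 µM to 0.4 µM His6-MBP-tagged mouse FoxP3 or FoxP1 fragment lacking the N-terminus, expressed in E. coli. Incubation lasted 30 min at room temperature in Tris pH 7.5 buffer with NaCl and MgCl2, after which complexes were collected on amylose resin, washed three times, digested with proteinase K to free the DNA, barcoded by PCR and sequenced by Illumina. Binding is the pooled-replicate reads-per-million enrichment of pull-down over input.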

| Sequence | binding signal |
| --- | --- |
| GATGATTGTTCTCCCAGCTGATGAATTAGAACCCTCGAGTAAACAAATTTTCCTAATCTTTCTGTTCAAGCGCCATCTAC | 0.832 RPM ratio (pull-down/input) |
| GATGATTGTTCTCCCAGCTGATGAATTAACTCCATCGAGTAAACAAATTTTCCTAATCTTTCTGTTCAAGCGCCATCTAC | 0.914 RPM ratio (pull-down/input) |
| GATGATTGTTCTCCCAGCTGATGAATTCACGCCTTCGAGTAAACAAATTTTCCTAATCTTTCTGTTCAAGCGCCATCTAC | 0.972 RPM ratio (pull-down/input) |
| GATGATTGTTCTCCCAGCTGATGAATTTATTCAGTCGAGTAAACAAATTTTCCTAATCTTTCTGTTCAAGCGCCATCTAC | 1.14 RPM ratio (pull-down/input) |
| GATGATTGTTCTCCCAGCTGATGAATTTACGTGGTCGAGTAAACAAATTTTCCTAATCTTTCTGTTCAAGCGCCATCTAC | 1.11 RPM ratio (pull-down/input) |
| GATGATTGTTCTCCCAGCTGATGAATTGCCCACTTCGAGTAAACAAATTTTCCTAATCTTTCTGTTCAAGCGCCATCTAC | 0.941 RPM ratio (pull-down/input) |
| GATGATTGTTCTCCCAGCTGATGAATTCAATCCATCGAGTAAACAAATTTTCCTAATCTTTCTGTTCAAGCGCCATCTAC | 0.967 RPM ratio (pull-down/input) |
| GATGATTGTTCTCCCAGCTGATGAATTCATTGGCTCGAGTAAACAAATTTTCCTAATCTTTCTGTTCAAGCGCCATCTAC | 0.795 RPM ratio (pull-down/input) |
| GATGATTGTTCTCCCAGCTGATGAATTACCGGATTCGAGTAAACAAATTTTCCTAATCTTTCTGTTCAAGCGCCATCTAC | 0.972 RPM ratio (pull-down/input) |
| GATGATTGTTCTCCCAGCTGATGAATTACTGGTCTCGAGTAAACAAATTTTCCTAATCTTTCTGTTCAAGCGCCATCTAC | 0.851 RPM ratio (pull-down/input) |
| GATGATTGTTCTCCCAGCTGATGAATTGAGCCGGTCGAGTAAACAAATTTTCCTAATCTTTCTGTTCAAGCGCCATCTAC | 0.734 RPM ratio (pull-down/input) |
| GATGATTGTTCTCCCAGCTGATGAATTCCCGCGCTCGAGTAAACAAATTTTCCTAATCTTTCTGTTCAAGCGCCATCTAC | 0.805 RPM ratio (pull-down/input) |
| GATGATTGTTCTCCCAGCTGATGAATTCTCACGCTCGAGTAAACAAATTTTCCTAATCTTTCTGTTCAAGCGCCATCTAC | 0.88 RPM ratio (pull-down/input) |
| GATGATTGTTCTCCCAGCTGATGAATTCGGTAGGTCGAGTAAACAAATTTTCCTAATCTTTCTGTTCAAGCGCCATCTAC | 0.791 RPM ratio (pull-down/input) |
| GATGATTGTTCTCCCAGCTGATGAATTTTAGGGCTCGAGTAAACAAATTTTCCTAATCTTTCTGTTCAAGCGCCATCTAC | 0.789 RPM ratio (pull-down/input) |
| GATGATTGTTCTCCCAGCTGATGAATTTTCTCAGTCGAGTAAACAAATTTTCCTAATCTTTCTGTTCAAGCGCCATCTAC | 0.973 RPM ratio (pull-down/input) |
| GATGATTGTTCTCCCAGCTGATGAATTGAAATATTCGAGTAAACAAATTTTCCTAATCTTTCTGTTCAAGCGCCATCTAC | 0.884 RPM ratio (pull-down/input) |
| GATGATTGTTCTCCCAGCTGATGAATTAGCCAACTCGAGTAAACAAATTTTCCTAATCTTTCTGTTCAAGCGCCATCTAC | 0.857 RPM ratio (pull-down/input) |
| GATGATTGTTCTCCCAGCTGATGAATTGCTCTCATCGAGTAAACAAATTTTCCTAATCTTTCTGTTCAAGCGCCATCTAC | 1.04 RPM ratio (pull-down/input) |
| GATGATTGTTCTCCCAGCTGATGAATTCCAAGGCTCGAGTAAACAAATTTTCCTAATCTTTCTGTTCAAGCGCCATCTAC | 0.734 RPM ratio (pull-down/input) |

| Sequence | binding signal |
| --- | --- |
| GATGATTGTTCTCCCAGCTGATGAATTATTAAGATCGAGTAAACAAATTTTCCTAATCTTTCTGTTCAAGCGCCATCTAC | 1.08 RPM ratio (pull-down/input) |
| GATGATTGTTCTCCCAGCTGATGAATTATAGAACTCGAGTAAACAAATTTTCCTAATCTTTCTGTTCAAGCGCCATCTAC | 0.936 RPM ratio (pull-down/input) |
| GATGATTGTTCTCCCAGCTGATGAATTTTGCGGCTCGAGTAAACAAATTTTCCTAATCTTTCTGTTCAAGCGCCATCTAC | 0.831 RPM ratio (pull-down/input) |
| GATGATTGTTCTCCCAGCTGATGAATTTTGAAATTCGAGTAAACAAATTTTCCTAATCTTTCTGTTCAAGCGCCATCTAC | 0.952 RPM ratio (pull-down/input) |
| GATGATTGTTCTCCCAGCTGATGAATTTGATAACTCGAGTAAACAAATTTTCCTAATCTTTCTGTTCAAGCGCCATCTAC | 0.988 RPM ratio (pull-down/input) |
| GATGATTGTTCTCCCAGCTGATGAATTGGCTTGATCGAGTAAACAAATTTTCCTAATCTTTCTGTTCAAGCGCCATCTAC | 0.863 RPM ratio (pull-down/input) |
| GATGATTGTTCTCCCAGCTGATGAATTCTTATCGTCGAGTAAACAAATTTTCCTAATCTTTCTGTTCAAGCGCCATCTAC | 0.945 RPM ratio (pull-down/input) |
| GATGATTGTTCTCCCAGCTGATGAATTTAAACTTTCGAGTAAACAAATTTTCCTAATCTTTCTGTTCAAGCGCCATCTAC | 0.882 RPM ratio (pull-down/input) |
| GATGATTGTTCTCCCAGCTGATGAATTCGGATTCTCGAGTAAACAAATTTTCCTAATCTTTCTGTTCAAGCGCCATCTAC | 0.844 RPM ratio (pull-down/input) |
| GATGATTGTTCTCCCAGCTGATGAATTTGGACGGTCGAGTAAACAAATTTTCCTAATCTTTCTGTTCAAGCGCCATCTAC | 0.86 RPM ratio (pull-down/input) |
| GATGATTGTTCTCCCAGCTGATGAATTTCGCTCGTCGAGTAAACAAATTTTCCTAATCTTTCTGTTCAAGCGCCATCTAC | 0.856 RPM ratio (pull-down/input) |
| GATGATTGTTCTCCCAGCTGATGAATTTCATGCCTCGAGTAAACAAATTTTCCTAATCTTTCTGTTCAAGCGCCATCTAC | 0.811 RPM ratio (pull-down/input) |
| GATGATTGTTCTCCCAGCTGATGAATTTCCGCACTCGAGTAAACAAATTTTCCTAATCTTTCTGTTCAAGCGCCATCTAC | 0.803 RPM ratio (pull-down/input) |
| GATGATTGTTCTCCCAGCTGATGAATTAAAGGGCTCGAGTAAACAAATTTTCCTAATCTTTCTGTTCAAGCGCCATCTAC | 0.81 RPM ratio (pull-down/input) |
| GATGATTGTTCTCCCAGCTGATGAATTTTAATTTTCGAGTAAACAAATTTTCCTAATCTTTCTGTTCAAGCGCCATCTAC | 1.17 RPM ratio (pull-down/input) |
| GATGATTGTTCTCCCAGCTGATGAATTTACGTTCTCGAGTAAACAAATTTTCCTAATCTTTCTGTTCAAGCGCCATCTAC | 1.26 RPM ratio (pull-down/input) |
| GATGATTGTTCTCCCAGCTGATGAATTCGCTGCCTCGAGTAAACAAATTTTCCTAATCTTTCTGTTCAAGCGCCATCTAC | 0.822 RPM ratio (pull-down/input) |
| GATGATTGTTCTCCCAGCTGATGAATTGCGCCAGTCGAGTAAACAAATTTTCCTAATCTTTCTGTTCAAGCGCCATCTAC | 0.985 RPM ratio (pull-down/input) |
| GATGATTGTTCTCCCAGCTGATGAATTCTGTGTTTCGAGTAAACAAATTTTCCTAATCTTTCTGTTCAAGCGCCATCTAC | 1.14 RPM ratio (pull-down/input) |
| GATGATTGTTCTCCCAGCTGATGAATTGCAAGTCTCGAGTAAACAAATTTTCCTAATCTTTCTGTTCAAGCGCCATCTAC | 1.11 RPM ratio (pull-down/input) |
